Reference: PMC4336329 (PLoS ONE, 2015)
Among all 310,000 compounds or so, about 14,000 (4.5%) showed an effect of 50% or more. The effect is printed as a negative number. The list shows a part of the results.

These compounds were tested against human ether-à-go-go-related gene (hERG) potassium channel (human, UniProt Q12809) (assay: primary screen, population patch clamp on CHO cells stably expressing hERG).
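Note: peak tail current of the secondary pulse compared with the same well before compound.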

Chain of human ether-à-go-go-related gene (hERG) potassium channel (Q12809 whole entry, looked up): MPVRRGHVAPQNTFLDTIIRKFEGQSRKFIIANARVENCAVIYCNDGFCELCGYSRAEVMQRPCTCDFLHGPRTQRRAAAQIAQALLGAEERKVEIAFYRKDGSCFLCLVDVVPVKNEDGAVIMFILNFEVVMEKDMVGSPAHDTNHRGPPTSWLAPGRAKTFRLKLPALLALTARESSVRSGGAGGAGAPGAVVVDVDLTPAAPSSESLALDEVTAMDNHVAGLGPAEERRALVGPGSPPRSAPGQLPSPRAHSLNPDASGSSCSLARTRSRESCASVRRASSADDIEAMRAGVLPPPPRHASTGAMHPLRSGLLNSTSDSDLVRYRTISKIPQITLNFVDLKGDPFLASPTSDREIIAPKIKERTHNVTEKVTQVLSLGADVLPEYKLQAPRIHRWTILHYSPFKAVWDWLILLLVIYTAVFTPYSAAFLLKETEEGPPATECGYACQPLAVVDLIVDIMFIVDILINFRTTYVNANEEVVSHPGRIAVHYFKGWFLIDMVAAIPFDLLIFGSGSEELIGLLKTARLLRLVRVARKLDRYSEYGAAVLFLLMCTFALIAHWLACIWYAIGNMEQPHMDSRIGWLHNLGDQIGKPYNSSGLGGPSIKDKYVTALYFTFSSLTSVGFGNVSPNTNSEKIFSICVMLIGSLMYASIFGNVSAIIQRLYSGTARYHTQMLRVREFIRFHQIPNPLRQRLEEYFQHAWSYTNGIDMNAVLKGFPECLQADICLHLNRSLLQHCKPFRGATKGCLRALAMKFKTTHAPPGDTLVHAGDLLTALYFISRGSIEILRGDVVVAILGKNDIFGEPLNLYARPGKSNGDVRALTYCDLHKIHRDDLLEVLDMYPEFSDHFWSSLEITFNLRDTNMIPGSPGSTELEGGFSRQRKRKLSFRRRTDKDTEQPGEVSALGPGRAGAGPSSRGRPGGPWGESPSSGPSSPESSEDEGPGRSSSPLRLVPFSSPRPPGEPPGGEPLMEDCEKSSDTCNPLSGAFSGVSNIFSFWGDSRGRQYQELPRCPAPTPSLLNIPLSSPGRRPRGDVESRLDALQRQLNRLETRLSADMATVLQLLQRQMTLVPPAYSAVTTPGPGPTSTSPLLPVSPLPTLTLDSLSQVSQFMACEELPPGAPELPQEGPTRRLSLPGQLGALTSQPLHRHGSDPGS

Compound | hERG current change (%, negative = inhibition) at 10uM
OCCC1CN(Cc2cccc(F)c2F)CCN1CCc1ccccc1 (stereo not shown) | -55.3%
CCOc1ccc(CNC(=O)CCS(=O)(=O)Cc2ccccc2C)cc1OC | 7.73%
COc1cc(O)c2c(=O)c(-c3ccc(O[C@@H]4O[C@H](CO)[C@@H](O)[C@H](O)[C@H]4O)cc3)coc2c1 | 8.87%
COCc1ccccc1Cn1cnc2c1c(=O)n(C)c(=O)n2C | 8.87%
CC(Oc1ccc(Cl)cc1Cl)C(=O)OCC(=O)c1c(N)n(C)c(=O)n(C)c1=O (stereo not shown) | -71.2%
COc1ccc(-c2ccnc3nc(-n4cccc4)nn23)cc1 | -14.7%
O=C(CCCc1nc2ccccc2s1)NCc1cccnc1 | 0.483%
CC(c1ccccc1)N1C(=O)c2ccccc2C1O (stereo not shown) | 6.24%
COc1ccc(CN(C(=S)Nc2ccccc2)C2CC(=O)N(c3ccc(F)cc3)C2=O)cc1 (stereo not shown) | 26.5%
O=C(c1cnn2c(C(F)(F)F)cc(-c3ccc4c(c3)OCO4)nc12)N1CCCC1 | -7.65%
COc1ccc(C(C)NC(=O)Cc2ccc(Br)cc2)cc1 (stereo not shown) | 12.9%
CC1=Nc2ccccc2/C1=C\c1nc(-c2ccccc2)oc1O | 18.5%
CCOC(=O)N1CCN(S(=O)(=O)c2ccc(C(=O)N(CCN(CC)CC)c3nc4c(C)cccc4s3)cc2)CC1.Cl | -24.3%
COCCCOc1ccnc(CS(=O)c2nc3ccccc3[nH]2)c1C (stereo not shown) | -1.7%
COC(=O)C1=C(c2ccc(C(C)=O)cc2)C[C@@H]2CC[C@H]1N2C(=O)NCc1ccc(F)cc1 | -30.9%
COc1cc(C)nc2nc(SCc3ccccc3)nn12 | 7.43%
COc1ccccc1CNC(=O)CSc1nc(N)c(C#N)c(-c2cccs2)c1C#N | -1.2%
Cn1cnc(S(=O)(=O)Nc2ccc3c(c2)OCCO3)c1 | 14.7%
O=C(Cc1ccccc1)Nc1ccnn1C1CCN(Cc2nccs2)CC1 | 7.8%
C(=N/Nc1cc(N2CCOCC2)nc(N2CCOCC2)n1)/c1ccccc1 | -39.9%
COC(=O)c1cc(-c2ccc(Br)cc2)n[nH]1 | 4.95%
CC(=O)OC1CC(C)(C)N(OC(=O)c2ccccc2)C(C)(C)C1 | 6.97%
CCOc1ccc(S(=O)(=O)NCCC(=O)NCCc2ccc(C(C)C)cc2)cc1 | 3.89%
COc1ccc(-c2noc(C(C)NS(=O)(=O)c3ccc(NC(C)=O)cc3)n2)cc1 (stereo not shown) | 17.5%
Cl.O=C(COc1ccc(Cl)cc1)NC1CN2CCC1CC2 (stereo not shown) | -35.1%
O=C(COC(=O)COc1ccc(Nc2ccccc2)cc1)NCc1ccco1 | 6.3%
Cc1ccccc1NC(=O)CC1(c2ccc(N(C)C)cc2)C(=O)c2ccccc2C1=O | 7.97%
Cc1cc(C)n(-c2ccc(N3CCOCC3)nn2)n1 | -0.758%

Compound | hERG current change (%, negative = inhibition) at 10uM
CC(C)CNC(=O)C1CCN(c2ccc(S(=O)(=O)N3CCOCC3)cc2Cl)CC1 | -19.3%
CC(=O)c1cccc(NC(=O)c2cnccn2)c1 | 4.59%
C=CCn1cc(C(=O)N2CCN(c3ccccc3)CC2)c(=O)c2cc(S(=O)(=O)N3CCCC3)ccc21 | -1.44%
O=C(/C=C/c1ccco1)Nc1ccc(N2CCCC2)cc1 | 10.5%
N#Cc1c(NC(=O)c2cc([N+](=O)[O-])ccc2N2CCOCC2)sc2c1CCCC2 | 4.02%
CCOC(=O)N1CCC(N2Cc3cccc(C(=O)N4CCN(C5CCCCC5)CC4)c3C2=O)CC1 | -62.4%
CCNc1nc(NC(C)C)nc(OCCNS(=O)(=O)c2cc(C)ccc2C)n1 | -47.7%
CN1CCN(c2cc(N3CCc4ccccc4C3)c(F)cc2[N+](=O)[O-])CC1 | -44.2%
CC(=O)Oc1cccc(Nc2ncnc3ccccc23)c1 | -1.52%
CCCc1nc(SCC(=O)N2CCC(Cc3ccccc3)CC2)c2c(=O)n(C)c(=O)n(C)c2n1 | -34.8%
Cc1ccc(Cn2ncc3c(N4CCN(CCc5ccccc5)CC4)ncnc32)cc1 | 5.73%
O=C(NNC(=S)Nc1ccc(Cl)c(Cl)c1)c1cccc([N+](=O)[O-])c1 | 36%
CCN(CC)CCOC(=O)c1ccc(NC(=O)CNC(=O)C2CCCCC2)cc1.Cl | -9.28%
O=C(CN1C(=O)C2C3C=CC(C3)C2C1=O)Nc1ccc2c(c1)OCCO2 (stereo not shown) | -4.27%
CN(c1ccccc1C(=O)NCc1ccccc1Cl)S(=O)(=O)c1ccccc1 | -12.8%
Cc1cccc(-c2noc(CCC(=O)NC3CCCC3)n2)c1 | 4.37%
CSc1ccc(Cl)c(C(=O)NCCOc2cc(C)ccc2C(C)C)c1 | 9.11%
Nn1cnnc1SCC(=O)Nc1ccc(C2CCCCC2)cc1 | 12.5%
Cc1cccc(NC(=S)NCC(c2cccnc2)N(C)C)c1C (stereo not shown) | 4.1%
COc1cccc(-c2nnc(SCC3CNC(=O)O3)n2-c2ccc(Cl)cc2)c1 (stereo not shown) | 8.33%
CCC(C)NC(=O)Cn1cnc2sc(C)c(S(=O)(=O)N3CCCCC3)c2c1=O (stereo not shown) | 14.6%
C1CC2OC2CC1C1CO1 (stereo not shown) | 20.4%
CCOC(=O)c1ccc2c(c1)nc(SCC(=O)c1ccco1)n2CC | 5.46%
Cc1cc(-c2onc(C)c2C(=O)Nc2ccc(C(F)(F)F)cc2)no1 | 5.24%
O=C(NCC1(c2ccccc2)CCOCC1)c1ccc(Br)o1 | 0.16%
CCC(=NCCCO)c1c(O)n(-c2ccc(OC)cc2)c(=O)[nH]c1=O | 12.2%
Cc1[nH]c(=O)[nH]c(=O)c1/C=N/NC(=O)[C@H](CC(C)C)NC(=O)OC(C)(C)C | 7.2%
